{
  "source": "patent US10501444B2",
  "about": "“Inhibitors of influenza virus replication, application methods and uses thereof” (SUNSHINE LAKE PHARMA CO., LTD., priority 2016, dated 2019)",
  "key": {"in vitro": {"test": "in vitro", "details": "human, microsomes, pH 7.4"}, "in vivo": {"test": "in vivo", "details": "SD, rat"}, "[1]": {"details": "human, 1 μM, pH 7.4"}, "[2]": {"details": "SD, rat, in vivo, po, 5 mg/kg"}, "[3]": {"test": "Pharmacokinetic evaluation after intravenous or oral administration to SD rat", "details": "in vivo"}},
  "data": [
    {"compound": "O=C(O)C1C2CCC(CC2)C1Nc1cc(-c2ccccc2)nc(-c2c[nH]c3c(F)cc(F)cc23)n1", "note": "(racemic) [Example 1, (+/−)-trans-3-((2-(5,7-difluoro-1H-indol-3-yl)-6-phenylpyrimidin-4-yl)amino)bicyclo[2.2.2]octane-2-carboxylic Acid]", "values": [
      {"measurement": "CLhep predicted at 1 μM", "setting": "in vitro", "value": 2, "unit": "mL/min/kg"},
      {"measurement": "half-life at 1 μM", "setting": "in vitro", "value": 12.8, "unit": "h"},
      {"measurement": "AUC(0-inf)", "setting": "in vivo; iv, 1 mg/kg", "value": 2950, "unit": "ng·h/mL"},
      {"measurement": "AUC(0-t)", "setting": "in vivo; iv, 1 mg/kg", "value": 2890, "unit": "ng·h/mL"},
      {"measurement": "Cmax", "setting": "in vivo; iv, 1 mg/kg", "value": 4650, "unit": "ng/mL"},
      {"measurement": "Tmax", "setting": "in vivo; iv, 1 mg/kg", "value": 0.083, "unit": "h"},
      {"measurement": "Vd", "setting": "in vivo; iv, 1 mg/kg", "value": 0.378, "unit": "L/kg"},
      {"measurement": "clearance", "setting": "in vivo; iv, 1 mg/kg", "value": 5.74, "unit": "mL/min/kg"},
      {"measurement": "half-life", "setting": "in vivo; iv, 1 mg/kg", "value": 1.48, "unit": "h"},
      {"measurement": "ER (extraction ratio)", "setting": "[1]", "value": 0.1}
    ]},
    {"compound": "O=C(O)C1C2CCC(CC2)C1Nc1nc(-c2c[nH]c3c(F)cc(F)cc23)nc2c1ccn2CCF", "note": "(racemic) [Example 34, (+/−)-trans-3-((2-(5,7-difluoro-1H-indol-3-yl)-7-(2-fluoroethyl)-7H-pyrrolo[2,3-d]pyrimidin-4-yl)amino)bicyclo[2.2.2]octane-2-carboxylic Acid]", "values": [
      {"measurement": "CLhep predicted at 1 μM", "setting": "in vitro", "value": 3.2, "unit": "mL/min/kg"},
      {"measurement": "half-life at 1 μM", "setting": "in vitro", "value": 7.75, "unit": "h"},
      {"measurement": "ER (extraction ratio)", "setting": "[1]", "value": 0.2}
    ]},
    {"compound": "CC(C)n1ccc2c(NC3C4CCC(CC4)C3C(=O)O)nc(-c3c[nH]c4c(F)cc(F)cc34)nc21", "note": "(racemic) [Example 35, (+/−)-trans-3-((2-(5,7-difluoro-1H-indol-3-yl)-7-isopropyl-7H-pyrrolo[2,3-d]pyrimidin-4-yl)amino)bicyclo[2.2.2]octane-2-carboxylic Acid]", "values": [
      {"measurement": "CLhep predicted at 1 μM", "setting": "in vitro", "value": 3.6, "unit": "mL/min/kg"},
      {"measurement": "half-life at 1 μM", "setting": "in vitro", "value": 6.66, "unit": "h"},
      {"measurement": "ER (extraction ratio)", "setting": "[1]", "value": 0.2}
    ]},
    {"compound": "O=C(O)C1C2CCC(CC2)C1Nc1cc(-c2ccco2)nc(-c2c[nH]c3c(F)cc(F)cc23)n1", "note": "(racemic) [Example 52, (+/−)-trans-3-((2-(5,7-difluoro-1H-indol-3-yl)-6-(furan-2-yl)pyrimidin-4-yl)amino)bicyclo[2.2.2]octane-2-carboxylic Acid]", "values": [
      {"measurement": "F", "setting": "[2]", "value": 81.5, "unit": "%"},
      {"measurement": "AUC(0-inf)", "setting": "in vivo; iv, 1 mg/kg", "value": 5570, "unit": "ng·h/mL"},
      {"measurement": "AUC(0-t)", "setting": "in vivo; iv, 1 mg/kg", "value": 5490, "unit": "ng·h/mL"},
      {"measurement": "Cmax", "setting": "in vivo; iv, 1 mg/kg", "value": 7420, "unit": "ng/mL"},
      {"measurement": "Tmax", "setting": "in vivo; iv, 1 mg/kg", "value": 0.083, "unit": "h"},
      {"measurement": "clearance", "setting": "in vivo; iv, 1 mg/kg", "value": 3.02, "unit": "mL/min/kg"},
      {"measurement": "half-life", "setting": "in vivo; iv, 1 mg/kg", "value": 1.38, "unit": "h"},
      {"measurement": "AUC(0-inf)", "setting": "in vivo; po, 5 mg/kg", "value": 22700, "unit": "ng·h/mL"},
      {"measurement": "AUC(0-t)", "setting": "in vivo; po, 5 mg/kg", "value": 22600, "unit": "ng·h/mL"},
      {"measurement": "Cmax", "setting": "in vivo; po, 5 mg/kg", "value": 6430, "unit": "ng/mL"},
      {"measurement": "Tmax", "setting": "in vivo; po, 5 mg/kg", "value": 1.17, "unit": "h"},
      {"measurement": "half-life", "setting": "in vivo; po, 5 mg/kg", "value": 1.29, "unit": "h"}
    ]},
    {"compound": "O=C(O)C1C2CCC(CC2)C1Nc1nc(-c2c[nH]c3ncc(F)cc23)ncc1F", "note": "(racemic) [VX-787 (racemization)]", "values": [
      {"measurement": "AUC(0-inf)", "setting": "[3]; iv, 1 mg/kg", "value": 1210, "unit": "ng·h/mL"},
      {"measurement": "AUC(0-t)", "setting": "[3]; iv, 1 mg/kg", "value": 1180, "unit": "ng·h/mL"},
      {"measurement": "Cmax", "setting": "[3]; iv, 1 mg/kg", "value": 2840, "unit": "ng/mL"},
      {"measurement": "Tmax", "setting": "[3]; iv, 1 mg/kg", "value": 0.083, "unit": "h"},
      {"measurement": "Vd", "setting": "[3]; iv, 1 mg/kg", "value": 1.81, "unit": "L/kg"},
      {"measurement": "clearance", "setting": "[3]; iv, 1 mg/kg", "value": 13.8, "unit": "mL/min/kg"},
      {"measurement": "half-life", "setting": "[3]; iv, 1 mg/kg", "value": 5.72, "unit": "h"},
      {"measurement": "AUC(0-inf)", "setting": "[3]; po, 5 mg/kg", "value": 3530, "unit": "ng·h/mL"},
      {"measurement": "AUC(0-t)", "setting": "[3]; po, 5 mg/kg", "value": 3510, "unit": "ng·h/mL"},
      {"measurement": "Cmax", "setting": "[3]; po, 5 mg/kg", "value": 1970, "unit": "ng/mL"},
      {"measurement": "Tmax", "setting": "[3]; po, 5 mg/kg", "value": 0.333, "unit": "h"},
      {"measurement": "half-life", "setting": "[3]; po, 5 mg/kg", "value": 4.14, "unit": "h"},
      {"measurement": "CLhep predicted at 1 μM", "setting": "in vitro", "value": 5.8, "unit": "mL/min/kg"},
      {"measurement": "half-life at 1 μM", "setting": "in vitro", "value": 3.56, "unit": "h"},
      {"measurement": "ER (extraction ratio)", "setting": "[1]", "value": 0.3}
    ]}
  ]
}
